Reference: PubChem BioAssay AID1460 (National Center for Advancing Translational Sciences (NCATS), 2008)
The whole screen tested about 270,000 compounds, of which about 5,800 (2.1%) were called active. This list was built around the results that the source calls inconclusive (neither active nor inactive); the mix of calls is not that of the screen. Calls come from the whole dose curve; as a rule, active = well fitted inhibition curve with a large enough effect; inconclusive = small, poorly fitted or top-dose-only effect; inactive = flat fitted curve, though single readings scatter. Potencies of inconclusive entries are doubtful fits and often do not repeat.
% is set by controls: 0 for no effect and ±100 for the full control effect; potency is the fitted concentration of half-maximal effect; tags give direction and shape of the fitted curve.
Note: nearly all actives have a fitted effect of over 55% in size.

Each compound was assayed against Microtubule-associated protein tau (Homo sapiens) (UniProt P10636) (assay: qHTS for Inhibitors of Tau Fibril Formation, Thioflavin T Binding). Conditions: recombinant tau K18 P301L (four-repeat tau fragment), heparin-induced fibrillization, ThT fluorescence; series mostly up to 57.4 µM; activity, negative = inhibition: at the top concentration.
Chain of UniProt P10636 (P10636 whole entry, looked up, the tested form may be a part): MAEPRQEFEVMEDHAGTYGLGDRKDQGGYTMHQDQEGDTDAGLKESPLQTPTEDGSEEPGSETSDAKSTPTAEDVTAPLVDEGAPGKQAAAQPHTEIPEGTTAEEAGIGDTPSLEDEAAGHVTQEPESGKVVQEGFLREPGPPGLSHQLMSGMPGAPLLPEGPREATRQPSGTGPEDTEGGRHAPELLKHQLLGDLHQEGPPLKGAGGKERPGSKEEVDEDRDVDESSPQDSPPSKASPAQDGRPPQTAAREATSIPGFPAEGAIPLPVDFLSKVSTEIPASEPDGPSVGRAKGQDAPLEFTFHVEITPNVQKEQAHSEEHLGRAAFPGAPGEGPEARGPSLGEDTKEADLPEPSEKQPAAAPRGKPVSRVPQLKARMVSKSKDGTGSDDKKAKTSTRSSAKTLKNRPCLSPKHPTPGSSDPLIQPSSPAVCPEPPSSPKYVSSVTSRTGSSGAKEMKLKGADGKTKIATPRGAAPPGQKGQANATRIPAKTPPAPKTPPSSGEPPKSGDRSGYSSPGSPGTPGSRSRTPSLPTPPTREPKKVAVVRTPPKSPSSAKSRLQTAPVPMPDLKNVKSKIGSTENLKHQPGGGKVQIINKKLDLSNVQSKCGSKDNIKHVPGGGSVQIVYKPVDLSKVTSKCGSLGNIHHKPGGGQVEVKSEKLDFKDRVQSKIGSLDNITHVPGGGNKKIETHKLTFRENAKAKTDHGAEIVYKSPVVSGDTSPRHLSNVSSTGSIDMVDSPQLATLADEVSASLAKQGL
Procedure, shortened: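 K18 P301L tau (15 uM + 0.24 uM Alexa 594-tagged), heparin 20 uM, NaOAc pH 7, 6 h 37 C; ThT 30 uM, 1 h RT, ex 450/em 510 nm.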
With `COCCNC(=O)C(C)N1c2cccc3cccc(c23)S1(=O)=O` (configuration not stated) the “activity, negative = inhibition” value was inactive: -6.02%.
With `O=S(=O)(c1ccc2c(c1)OCCO2)N1CCN(Cc2ccc3c(c2)OCO3)CC1` the “activity, negative = inhibition” value was inactive: 1.76%.
With `CCCN1C(=O)c2[nH]nc(-c3ccccc3O)c2C1c1cccc(OCc2ccccc2)c1` (configuration not stated) the “activity, negative = inhibition” value was inactive: -4.09%.
For `COc1cccc(NC(=O)CSc2nc3c([nH]c4ccccc43)c(=O)n2-c2ccccc2)c1`, the “activity, negative = inhibition” value was inactive: -3.65%.
For `COc1ccc(-c2nc3c(Br)c(N)c(Br)cc3o2)cc1`, the Potency was inconclusive: 0.794 µM [inhibitor, partial curve].
With `COc1ccc(/C(C)=N/NC(=O)Cn2nc([N+](=O)[O-])cc2C)cc1` the “activity, negative = inhibition” value was inactive: -7.1%.
`Cc1nn(CC(=O)Nc2ccc(C#N)cc2)c(C)c1[N+](=O)[O-]` was tested, and the Potency was inconclusive: 22.4 µM [inhibitor, single point].
In the case of `CCOC(=O)CSc1nc(N)c(C#N)c(-c2cccs2)c1C#N`, the “activity, negative = inhibition” value is reported as inactive: -1.01%.
`Cc1ccccc1-c1nnc(CN2CCN(c3cccc(C)c3C)CC2)o1` was tested, and the Potency was inconclusive: 17.8 µM [inhibitor, partial curve].
In the case of `Cc1cccc(NC(=S)NCc2ccco2)c1C`, the “activity, negative = inhibition” value is reported as inactive: 3.9%.
In the case of `O=C(CCC(=O)N1CCN(c2ccc(O)cc2)CC1)c1cccs1`, the Potency is reported as inconclusive: 3.55 µM [inhibitor, full curve].
For `COc1cccc(N2CCN(C(=O)C3CCN(S(=O)(=O)c4cccs4)CC3)CC2)c1`, the “activity, negative = inhibition” value was inactive: -12.3%.
For `Cc1cc(-n2c(C)nc3ccccc3c2=O)ccc1NC(=O)c1ccc(C)c([N+](=O)[O-])c1`, the “activity, negative = inhibition” value was inactive: -17.1%.
`Cc1ccc(C(=O)/C=C/c2cn(CC(O)CN3CCc4ccccc43)c3ccccc23)cc1` (configuration not stated) was tested, and the Potency was inconclusive: 5.01 µM [inhibitor, partial curve].
In the case of `CCCn1cnc2cc(NCc3ccccn3)ccc21`, the Potency is reported as inconclusive: 28.2 µM [inhibitor, partial curve, poor fit].
With `CC1(C(=O)N2CC3(CC(c4cccc([N+](=O)[O-])c4)=NO3)C[C@H]2C(=O)NCC(N)=O)CC1` (some centres not stated) the “activity, negative = inhibition” value was inactive: 2.06%.
`COc1ccccc1OCc1ccc(C(=O)N/N=C/c2ccco2)cc1` was tested, and the Potency was inconclusive: 4.47 µM [inhibitor, partial curve].
For `COC(=O)[C@@H](N)Cc1ccc(O)c(O)c1`, the Potency was inconclusive: 39.8 µM [inhibitor, partial curve].
`COCCNC(=O)CC(NS(=O)(=O)c1ccc(C)cc1)c1ccco1` (configuration not stated) was tested, and the “activity, negative = inhibition” value was inactive: -1.17%.
For `COc1ccc(-c2noc(COc3cc(C)c(Br)c(C)c3)n2)cc1OC`, the Potency was inconclusive: 3.98 µM [inhibitor, partial curve].
`CC1=C(C(=O)Nc2ccccc2C)C(c2ccc(C)o2)NC(=S)N1` (configuration not stated) was tested, and the “activity, negative = inhibition” value was inactive: -2.7%.
With `COc1ccc(OC)c(CNC(=O)c2cc3cc4ccc(OC)cc4nc3o2)c1` the “activity, negative = inhibition” value was inactive: -13.7%.
`COCCN1CCc2c(C)nc3c(-c4ccc(OC)c(OC)c4)cnn3c21` was tested, and the Potency was inconclusive: 10 µM [inhibitor, partial curve].
With `COc1ccccc1/C=C/C=N/NC(=O)c1ccc(=O)n(C)c1` the “activity, negative = inhibition” value was inactive: -4.63%.
For `N#Cc1cc([N+](=O)[O-])ccc1NC(=O)COC(=O)C12CC3CC(CC(C3)C1)C2`, the Potency was inconclusive: 20 µM [inhibitor, single point].
For `CNc1cc([N+](=O)[O-])ccc1N/C=C/C(=O)c1cccs1`, the Potency was active: 15.8 µM.
In the case of `O=C(c1ccc(COc2c(F)c(F)c(F)c(F)c2F)o1)N1CCN(Cc2ccc3c(c2)OCO3)CC1`, the Potency is reported as inconclusive: 20 µM [inhibitor, single point].
With `CCn1c(-c2csc(C(C)C)c2)n[nH]c1=S` the Potency was inconclusive: 12.6 µM [inhibitor, single point].
With `COc1ccc(NC(=S)N/N=C/c2ccc(F)c(F)c2)cc1` the Potency was inconclusive: 35.5 µM [inhibitor, single point].
`CCOCCCNC(=S)NCCCNc1nc2c(C)cc(C)cc2cc1C#N` was tested, and the Potency was inconclusive: 17.8 µM [inhibitor, single point].
`CCOC(=O)C1=C(C)NC(=O)/C1=C\N(C)C` was tested, and the Potency was inconclusive: 14.1 µM [inhibitor, partial curve].
In the case of `Cc1ccc(Nc2nnc(SCC(=O)Nc3cccnc3Cl)s2)cc1C`, the Potency is reported as inconclusive: 15.8 µM [inhibitor, partial curve].
In the case of `Cc1cc(S(=O)(=O)C(CNC(=O)COc2ccccc2)c2cccs2)ccc1F` (configuration not stated), the “activity, negative = inhibition” value is reported as inactive: -3.18%.
For `CC(=O)c1cccc(NC(=O)c2cc(-c3ccc(C)cc3)on2)c1`, the Potency was inconclusive: 3.55 µM [inhibitor, full curve, poor fit].
`CCOc1cc2sc(N3CCC(C(=O)Nc4ccccc4Cl)CC3)nc2cc1Br` was tested, and the Potency was inconclusive: 0.631 µM [inhibitor, full curve].
In the case of `COc1ccc2nc(NC(=O)CSc3nnnn3C)sc2c1`, the Potency is reported as inconclusive: 10 µM [inhibitor, partial curve, poor fit].
In the case of `CC(C)Sc1nc2c(c(=O)[nH]c(=O)n2C)n1Cc1ccc(Cl)cc1`, the “activity, negative = inhibition” value is reported as inactive: -3.79%.
In the case of `CC1(C)[C@@H](O)CC[C@]2(C)[C@H]3C(=O)C=C4[C@@H]5C[C@@](C)(C(=O)O)CC[C@]5(C)CC[C@@]4(C)[C@]3(C)CC[C@@H]12`, the Potency is reported as inconclusive: 28.2 µM [inhibitor, single point].
With `O=C(CCC(=O)N1CCc2ccccc21)Nc1ccccc1` the Potency was inconclusive: 31.6 µM [inhibitor, partial curve].
For `Cc1ccc(OCCSc2nc3ncnc(N)c3[nH]2)cc1`, the “activity, negative = inhibition” value was inactive: -5.11%.
For `Cc1ccc2c(ccc(=S)n2C)c1`, the Potency was inconclusive: 3.16 µM [inhibitor, full curve, poor fit].
In the case of `CC(=O)c1cccc(NC(=O)CSC(=O)c2ccccc2)c1`, the Potency is reported as inconclusive: 25.1 µM [inhibitor, partial curve].
`CC(C)(C)c1ccc(C(=O)NCC(c2cccs2)S(=O)(=O)c2ccc(F)cc2)cc1` (configuration not stated) was tested, and the “activity, negative = inhibition” value was inactive: -14%.
`O=c1oc2ccccc2cc1-c1ccccc1` was tested, and the “activity, negative = inhibition” value was inactive: -11.3%.
In the case of `c1ccc(-c2nc(N3CCOCC3)c3ccccc3n2)nc1`, the “activity, negative = inhibition” value is reported as inactive: -20.8%.
`Cc1ccccc1C(=O)Nc1nncs1` was tested, and the “activity, negative = inhibition” value was inactive: -3.56%.
`Brc1ccc2nc(N3CCN(c4ccccc4)CC3)sc2c1` was tested, and the Potency was inconclusive: 2.51 µM [inhibitor, full curve].
With `COc1ccccc1CNC(=O)COc1cc(=O)n(C)c2ccccc12` the “activity, negative = inhibition” value was inactive: -6.52%.
`CCCCC(c1nnnn1Cc1ccco1)N1CCN(c2nc3ccccc3s2)CC1` (configuration not stated) was tested, and the Potency was inconclusive: 31.6 µM [inhibitor, single point].
With `Nc1cc2sc(-c3ccc(C(=O)O)cc3)nc2cc1Cl` the Potency was inconclusive: 17.8 µM [inhibitor, partial curve].
In the case of `O=[N+]([O-])c1cccc(C2Nc3cccc4cccc(c34)N2)c1`, the Potency is reported as inconclusive: 22.4 µM [inhibitor, partial curve].
With `Cc1ccccc1C(=O)Nc1nnc(SCc2cc(=O)n3ccccc3n2)s1` the “activity, negative = inhibition” value was inactive: 1.25%.
`CCOc1ccc(C(=O)CSc2nnc3cc(C)c4ccccc4n23)cc1` was tested, and the Potency was inconclusive: 17.8 µM [inhibitor, single point].
`Cc1cc(OCC(=O)Nc2cc(-c3nc4ccccc4[nH]3)ccc2C)ccc1Cl` was tested, and the Potency was inconclusive: 3.16 µM [inhibitor, partial curve, poor fit].
For `COc1cccc(NC(=O)CSc2nnc(-c3cc(C)n(-c4ccccc4)c3C)o2)c1`, the Potency was inconclusive: 15.8 µM [inhibitor, partial curve].
For `NC(N)=N/N=C/c1ccc(Cl)c([N+](=O)[O-])c1`, the Potency was inconclusive: 39.8 µM [inhibitor, single point].
With `CNC(=O)/C(C#N)=C/c1cn(CC(=O)NCc2ccco2)c2ccccc12` the Potency was inconclusive: 39.8 µM [inhibitor, single point].
In the case of `COc1ccc(-c2noc(N3CCN(c4cccc(Cl)c4)CC3)n2)cc1OC`, the Potency is reported as inconclusive: 1.78 µM [inhibitor, full curve].
With `C=CCNc1nnc(SC2CC(=O)N(c3ccc(OC)cc3)C2=O)s1` (configuration not stated) the Potency was inconclusive: 17.8 µM [inhibitor, partial curve].
For `CC1(C)CC(=O)C2=C(C1)OC(N)=C(C#N)C21CCC2(CC1)OCCO2`, the Potency was inconclusive: 12.6 µM [inhibitor, partial curve].
In the case of `O=C(O)CCCNc1ccc(S(=O)(=O)Nc2ccccc2C(=O)O)cc1C(=O)O`, the “activity, negative = inhibition” value is reported as inactive: -7.51%.
`COC(=O)c1ccc(COc2ccc(/C=N/Nc3cccc(C(=O)O)c3)cc2)cc1` was tested, and the Potency was active: 15.8 µM.
For `CCOC(=O)c1ccc(NC(=O)C2CCN(C(=O)N3CC(C)Oc4ccc(C)cc43)CC2)cc1` (configuration not stated), the Potency was inconclusive: 5.01 µM [inhibitor, partial curve].
With `COc1ccc(-c2c3c(nc4sc(C(=O)Nc5ccc(F)cc5)c(N)c24)CC(C)(C)CC3=O)cc1` the Potency was inconclusive: 4.47 µM [inhibitor, full curve].
With `CCOC(=O)c1c(C)oc2ncnc(NCCCN3CCN(c4cc(C)ccc4C)CC3)c12` the Potency was inconclusive: 39.8 µM [inhibitor, single point].
With `COc1ccc(-n2c(C)nc3cc(C(=O)NCc4ccco4)ccc32)cc1` the “activity, negative = inhibition” value was inactive: -5.46%.
`O=C(c1ccco1)N1CCN(c2c(-c3ccccc3)c3cc(Cl)ccc3[nH]c2=O)CC1` was tested, and the “activity, negative = inhibition” value was inactive: -19.2%.
For `COc1ccc(NC(=O)Cc2ccccc2)cc1`, the Potency was inconclusive: 39.8 µM [inhibitor, single point].
For `CN=c1scc(-c2ccccc2F)n1/N=C/c1ccc(O)c(O)c1O`, the Potency was active: 14.1 µM.
In the case of `COc1ccc(-c2cc(C(=O)OCC(=O)Nc3ccc4c(c3)OCO4)c3ccccc3n2)cc1`, the Potency is reported as inconclusive: 3.98 µM [inhibitor, full curve].
With `C=C(C)c1cccc(C(C)(C)NC(=O)Nc2ccc(C)cn2)c1` the Potency was inconclusive: 22.4 µM [inhibitor, single point].
`COc1ccccc1N1CCN(C(=O)c2cnn(-c3ccc(C)c(C)c3)c2C2CCN(C(=O)OC(C)(C)C)CC2)CC1` was tested, and the “activity, negative = inhibition” value was inactive: -14.3%.
